# The campaign covered roughly 310,000 compounds. About 2,200 (0.71%) showed an effect of 50% or more. The effect is printed as a negative number. Some of the results follow.
# Biological target: human ether-à-go-go-related gene (hERG) potassium channel (human, UniProt Q12809)
# Test: primary screen, population patch clamp on CHO cells stably expressing hERG
# Sequence of human ether-à-go-go-related gene (hERG) potassium channel (Q12809 whole entry, looked up): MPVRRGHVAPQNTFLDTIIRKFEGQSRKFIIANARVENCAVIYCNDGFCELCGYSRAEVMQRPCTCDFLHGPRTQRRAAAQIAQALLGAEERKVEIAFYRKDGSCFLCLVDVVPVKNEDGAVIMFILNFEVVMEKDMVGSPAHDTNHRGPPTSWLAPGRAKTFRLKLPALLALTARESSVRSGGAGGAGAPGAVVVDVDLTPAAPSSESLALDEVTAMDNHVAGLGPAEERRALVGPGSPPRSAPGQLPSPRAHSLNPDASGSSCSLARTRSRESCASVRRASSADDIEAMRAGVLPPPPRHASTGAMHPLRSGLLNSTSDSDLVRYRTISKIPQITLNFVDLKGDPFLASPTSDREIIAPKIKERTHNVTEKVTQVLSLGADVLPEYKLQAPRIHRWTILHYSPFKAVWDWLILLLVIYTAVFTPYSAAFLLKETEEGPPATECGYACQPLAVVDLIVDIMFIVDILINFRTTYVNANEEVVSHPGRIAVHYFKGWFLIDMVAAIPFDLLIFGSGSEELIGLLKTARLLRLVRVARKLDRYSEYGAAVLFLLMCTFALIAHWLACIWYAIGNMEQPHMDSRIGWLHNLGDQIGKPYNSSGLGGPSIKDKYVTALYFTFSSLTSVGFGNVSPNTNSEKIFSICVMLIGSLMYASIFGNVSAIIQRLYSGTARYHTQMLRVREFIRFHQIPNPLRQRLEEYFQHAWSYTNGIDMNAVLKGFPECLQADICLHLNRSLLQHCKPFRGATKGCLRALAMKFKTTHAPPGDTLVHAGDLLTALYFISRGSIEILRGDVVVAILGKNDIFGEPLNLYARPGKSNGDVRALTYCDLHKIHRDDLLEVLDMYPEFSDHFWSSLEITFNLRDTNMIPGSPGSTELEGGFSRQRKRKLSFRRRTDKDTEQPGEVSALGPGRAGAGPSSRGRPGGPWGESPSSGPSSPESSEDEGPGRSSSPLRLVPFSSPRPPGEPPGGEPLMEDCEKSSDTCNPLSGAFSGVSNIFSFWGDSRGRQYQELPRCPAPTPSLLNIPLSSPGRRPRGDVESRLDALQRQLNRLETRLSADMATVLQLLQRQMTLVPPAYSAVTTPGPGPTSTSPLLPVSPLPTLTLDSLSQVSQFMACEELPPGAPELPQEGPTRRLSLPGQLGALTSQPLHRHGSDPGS
row,SMILES,"hERG current change (%, negative = inhibition) at 1uM [%]"
1,CCCCCCN=Cc1c(O)n(C)c(=O)n(C)c1=O,12.7
2,Cc1ccc(CN2CCNC(=O)C2CC(=O)NC2CCCCCC2)cc1 (stereo not shown),7.01
3,O=C(c1cc(S(=O)(=O)N2CCOCC2)ccc1F)N1CCN(Cc2ccccc2)CC1,-10.1
4,COC(=O)C1=C(C)N=C2SC(C#N)=C(N)N2C1c1cccc(OC)c1 (stereo not shown),5.98
5,COc1cccc2c1OCC(C(=O)OCc1cccnc1)=C2,10.4
6,CC1=CC(=O)NP(=O)(Oc2ccc3ccccc3c2)N1 (stereo not shown),3.53
7,CC1CCN(S(=O)(=O)c2ccc3c(c2)N(CC(=O)NCCCN(Cc2ccccc2)C(C)C)C(=O)CO3)CC1,3.08
8,Cc1ccc(CNC(=O)CCS(=O)(=O)c2ccc(Cl)cc2)cc1,3.3
9,Cc1cc(C)cc(NC(=O)CSc2nc(CSc3ccc(Cl)cc3)cc(=O)[nH]2)c1,5.09
10,CC(C)c1ccc(N(CC(=O)NC2CCCC2)C(=O)CCC(=O)Nc2ccccn2)cc1,7.06
11,CCNc1cc(N2CCNCC2)ccc1[N+](=O)[O-],8.51
12,C=C(C)CN(CC)CCC(=O)Nc1ccc(OC)cc1OC.Cl,10
13,COc1ccc(S(=O)(=O)N2CCCCCC2)cc1C(=O)Nc1ccc(C)cn1,12.3
14,COc1ccccc1Nc1nc(-c2sc(NC(=O)C(C)(C)C)nc2C)cs1,13.7
15,CCOC(=O)c1cc(-c2ccccc2)sc1NC(=O)C(C)OC(=O)c1ccncc1 (stereo not shown),8.58
16,O=C(COC(=O)c1cc(Cl)ccc1O)NCCNC(=O)COC(=O)c1cc(Cl)ccc1O,14.6
17,COc1ccccc1C(=O)Nc1ccc(OCC(=O)N2CCCCC2C)cc1 (stereo not shown),6.26
18,CCn1c(-c2cccn(Cc3ccc(Cl)cc3Cl)c2=O)n[nH]c1=S,15.6
19,CN1CCN(Cc2nnc(-c3ccccc3)o2)CC1,18.2
20,CC(=O)NC12CC3CC(C1)CC(C(=O)N1CCN(c4ncccn4)CC1)(C3)C2,13
21,CCOC(=O)c1ccc(N2C(=O)CC(NNC(=O)c3ccc(Br)s3)C2=O)cc1 (stereo not shown),12.8
22,COc1ccc(/C=C(\NC(=O)c2ccco2)C(=O)NCCc2nc3ccccc3[nH]2)cc1,-8.54
23,O=C(/C=C/c1cccc([N+](=O)[O-])c1)NC(=S)Nc1ccc(CN2CCOCC2)cc1,7.21
24,O=C(Oc1ccc(-c2nc(-c3ccccn3)no2)cc1)c1ccccc1,8.55
25,O=C(CSc1ccc2ccccc2c1)NCc1cccs1,13.5
26,COc1cccc(-c2ccc(SCC(=O)N3CCN(c4ccccc4)CC3)nn2)c1,1.33
27,Cc1sc(N2CCN(S(=O)(=O)c3ccc4c(c3)NC(=O)CO4)CC2)nc1-c1ccccc1,5.53
28,COc1ccc(N(CC(=O)N/N=C/c2ccc(N(C)C)cc2)S(=O)(=O)c2ccccc2)cc1,17.1

row,SMILES,"hERG current change (%, negative = inhibition) at 1uM [%]"
1,Cc1cc(C)nc(N(C#N)S(=O)(=O)c2ccccc2Cl)n1,8.84
2,CC1c2cc3c(cc2CCN1C(=O)c1ccc(C(F)(F)F)cc1)OCCCO3 (stereo not shown),27.1
3,O=C(OCCOc1cccc(Cl)c1)c1ccc2ncsc2c1,5.97
4,COc1ccc2oc(C(=O)NCCC(C)C)c(C)c2c1,3.16
5,CCOc1ccc(C(C)=O)cc1COC(=O)c1cc([N+](=O)[O-])ccc1N1CCOCC1,5.92
6,O=C(NNC(=O)c1cnccc1C(F)(F)F)c1ccccc1,1.87
7,Cc1nc2ccccc2c(C)c1CC(=O)OC(C)C(=O)NC1(C#N)CCCCC1 (stereo not shown),11.1
8,Cc1cccc(C(=O)OCC(=O)c2cccc(Br)c2)c1O,8.86
9,COc1ccc(C(C(=O)NC2CCCCC2)N(C(=O)c2sc(C)nc2C)c2ccccc2)cc1 (stereo not shown),11.8
10,Cc1c(NC(=S)Nc2ccccc2)c(=O)n(-c2ccccc2)n1C,25.5
11,CCOc1cccc(/C=N/NS(=O)(=O)c2ccc(C)c([N+](=O)[O-])c2)c1O,21.4
12,COc1ccc(C2=NN(C(=O)CCC(=O)O)C(c3ccc(Br)cc3)C2)cc1 (stereo not shown),25.5
13,CCOC(=O)C1CCN(C(=O)Nc2ccc(Cl)cc2Cl)CC1,19.4
14,COc1ccc(S(=O)(=O)NCc2ccc(C(=O)NCCCN3CC(C)CC(C)C3)cc2)cc1 (stereo not shown),14.1
15,CC1CCN(c2nc(-c3ccc(F)cc3)cc(C(F)(F)F)n2)CC1,19.8
16,O=C(/C=C/c1ccccn1)c1cc(Cl)cc(Cl)c1O,13.7
17,O=C(Nc1cccn2ncnc12)C(Cl)Cl,9.19
18,O=C(/C=C/c1ccc(F)cc1)Nc1ccc2[nH]c(=O)[nH]c2c1,9.47
19,O=C(CCN1C(=O)/C(=C/c2cccs2)SC1=S)Nc1ccc(C(=O)O)c(O)c1,9.27
20,CC(C)Oc1ccc(C(CC(=O)O)NC(=O)Cc2ccccc2)cc1 (stereo not shown),14.7
21,CC(=O)Nc1cccc(N2C(=O)CCC2=O)c1,14.1
22,O=C(NCC1CCCO1)c1cccc(N2CCCC2=O)c1 (stereo not shown),16.9
23,CCN(CC)c1ccc(NC(=O)COC(=O)c2cccs2)cc1.O=S(=O)(O)O,-5.6
24,Cc1ccc(S(=O)(=O)Nc2cc(C)nn2-c2ccccc2)cc1,8.38
25,Cc1ccc(CNC(=O)C2CCCN(S(=O)(=O)c3c(C)n[nH]c3C)C2)cc1 (stereo not shown),0.141
26,Cc1sc2ncn(CC(=O)NCCCC(=O)NCc3ccc(F)cc3)c(=O)c2c1C,8.91
27,O=c1oc2ccccc2c(NCc2ccc(Cl)cc2)c1[N+](=O)[O-],-0.351

# From publication PMC4336329 (PLoS ONE, 2015)
